Experimental data published in the supplement of paper PMC10369915.
The list shows a part of the results. Rule as the data show it: active = 3.2 or more and inactive = the rest. The signal is at background level for most entries.

Experiments:
Test in all cases: enrichment score (SH2-bound / input frequency) (ratio); bacterial display of known human phosphotyrosine sites (pTyr-Var adds point mutants) read by sequencing; higher = stronger binding; tyrosines were phosphorylated by kinases first
Conditions in all cases: peptide library: pTyr-Var
[1] = molecular target: SHP2 C-SH2 domain E139D
[2] = molecular target: SHP2 C-SH2 domain wild-type
[3] = molecular target: SHP2 N-SH2 domain L43F
[4] = molecular target: SHP2 N-SH2 domain T42A
[5] = molecular target: SHP2 N-SH2 domain T52S
[6] = molecular target: SHP2 N-SH2 domain wild-type
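Also: displayed peptides selected on beads carrying the immobilized SH2 domain, with library peptides lacking any tyrosine serving as negative controls.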

| Binder | enrichment score [1] | enrichment score [2] | enrichment score [3] | enrichment score [4] | enrichment score [5] | enrichment score [6] |
| --- | --- | --- | --- | --- | --- | --- |
| ISDEAYVMAGV [ERBB2_Y772_L768S] | inactive: 0.612 | inactive: 0.703 | inactive: 0.91 | inactive: 0.625 | inactive: 0.741 | inactive: 0.802 |
| FGPPQYNIQFS [ERBB2IP_Y977_YF] | inactive: 1.06 | inactive: 0.981 | inactive: 1.04 | inactive: 1 | inactive: 1.08 | inactive: 1.31 |
| QYNIQYSSSAA [ERBB2IP_Y981] | inactive: 0.797 | inactive: 0.696 | inactive: 1.11 | inactive: 0.882 | inactive: 0.71 | inactive: 0.898 |
| QFNMQYSSSAA [ERBB2IP_Y981_I979M_YF] | inactive: 0.65 | inactive: 0.566 | inactive: 0.56 | inactive: 0.644 | inactive: 0.615 | inactive: 0.833 |
| QFNIQYSSSAA [ERBB2IP_Y981_YF] | inactive: 0.987 | inactive: 0.797 | inactive: 1.02 | inactive: 0.81 | inactive: 1.24 | inactive: 0.904 |
| EEEYEYMNRRR [ERBB3_Y1199_D1194E] | inactive: 0.777 | inactive: 0.516 | inactive: 0.658 | inactive: 0.567 | inactive: 0.436 | inactive: 0.317 |
| EEEFEYMNRRR [ERBB3_Y1199_D1194E_YF] | inactive: 0.428 | inactive: 0.462 | inactive: 0.555 | inactive: 0.464 | inactive: 0.601 | inactive: 0.521 |
| GDFLSYREFHL [ERBIN_Y1107_S1112L_YF] | inactive: 1.38 | inactive: 1.31 | inactive: 1.19 | inactive: 1.25 | inactive: 1.21 | inactive: 1.18 |
| EVEPTYVVLYD [ERCC4_Y577_R576T] | inactive: 0.683 | inactive: 0.725 | inactive: 0.798 | inactive: 0.522 | inactive: 0.688 | inactive: 0.652 |
| EVEPTYVVLFD [ERCC4_Y577_R576T_YF] | inactive: 0.615 | inactive: 0.737 | inactive: 0.584 | inactive: 0.66 | inactive: 0.67 | inactive: 0.806 |
| EVEPRYVVLFD [ERCC4_Y577_YF] | inactive: 0.688 | inactive: 0.961 | inactive: 2.05 | inactive: 3.01 | inactive: 2.11 | inactive: 1.04 |
| WQLEIYRASRP [ERCC4_Y594_R589W] | inactive: 0.865 | inactive: 0.848 | inactive: 0.791 | inactive: 0.665 | inactive: 0.836 | inactive: 0.867 |
| YFCRWYRNQKS [EREG_Y144_R147Q] | inactive: 0.341 | inactive: 0.303 | inactive: 0.201 | inactive: 0.349 | inactive: 0.263 | inactive: 0.212 |
| NKKHHYRELPV [ERN2_Y860] | active: 3.21 | inactive: 2.73 | inactive: 2.94 | inactive: 2.82 | inactive: 2.99 | inactive: 2.96 |
| NKKYHYRELPV [ERN2_Y860_H858Y] | inactive: 1.28 | inactive: 1 | inactive: 0.992 | inactive: 0.966 | inactive: 1.29 | inactive: 1.04 |
| RLQEGYDHSFF [ESD_Y258_YF] | inactive: 0.888 | inactive: 0.743 | inactive: 1.19 | inactive: 0.734 | inactive: 0.701 | inactive: 1.02 |
| NNHGNYIVHLG [ETFDH_Y172_R175H] | inactive: 0.91 | inactive: 0.956 | inactive: 0.879 | inactive: 0.971 | inactive: 1.1 | inactive: 1.04 |
| ALCHFYKLNII [ETV6_Y402_R399C_YF] | inactive: 2.49 | inactive: 2.86 | inactive: 2.47 | inactive: 1.97 | inactive: 2.4 | active: 3.21 |
| PPSLSYLSFEG [EXOSC3_Y143_A139P] | inactive: 0.761 | inactive: 0.631 | inactive: 1.45 | inactive: 2.37 | inactive: 1.59 | inactive: 0.934 |

| Binder | enrichment score [1] | enrichment score [2] | enrichment score [3] | enrichment score [4] | enrichment score [5] | enrichment score [6] |
| --- | --- | --- | --- | --- | --- | --- |
| EFISEYCGEII [EZH2_Y641] | inactive: 1.13 | inactive: 1.19 | inactive: 1.05 | inactive: 0.673 | inactive: 1.24 | inactive: 1.17 |
| EFISEHCGEII [EZH2_Y641_Y641H] | inactive: 1.08 | inactive: 1.02 | inactive: 1.25 | inactive: 0.827 | inactive: 0.947 | inactive: 1.21 |
| PEPTGYSAELS [EZR_Y499_A494P] | inactive: 0.612 | inactive: 0.575 | inactive: 0.621 | inactive: 0.614 | inactive: 0.551 | inactive: 0.56 |
| MFRAGYDTKQE [F10_Y407_C404R] | inactive: 1.04 | inactive: 0.829 | inactive: 0.805 | inactive: 0.751 | inactive: 0.783 | inactive: 0.967 |
| MFCASYDTKQE [F10_Y407_G406S] | inactive: 0.914 | inactive: 0.983 | inactive: 0.874 | inactive: 0.923 | inactive: 0.801 | inactive: 0.87 |
| LSSETYVKSYT [F5_Y2149_M2148T] | inactive: 0.757 | inactive: 0.582 | inactive: 1.03 | inactive: 0.493 | inactive: 0.697 | inactive: 0.659 |
| TYVKSYTIHYS [F5_Y2153_M2148T] | inactive: 0.778 | inactive: 0.941 | inactive: 1.33 | inactive: 0.687 | inactive: 1.53 | inactive: 0.813 |
| RIGRKYKRVRF [F8_Y442_K444R] | inactive: 0.307 | inactive: 0.219 | inactive: 0.322 | inactive: 0.286 | inactive: 0.131 | inactive: 0.206 |
| VRFMADTDETF [F8_Y450_Y450D] | inactive: 0.858 | inactive: 0.784 | inactive: 0.839 | inactive: 0.795 | inactive: 0.85 | inactive: 0.921 |
| ENFDDYMKDVG [FABP4_Y20_E23D] | inactive: 0.846 | inactive: 0.786 | inactive: 0.656 | inactive: 0.699 | inactive: 0.64 | inactive: 0.87 |
| AESPEYVHMYT [FAM111A_Y511] | inactive: 0.864 | inactive: 0.644 | inactive: 0.728 | inactive: 0.638 | inactive: 0.692 | inactive: 0.696 |
| LQEQNYPAVDS [FAM114A1_Y115_L116P] | inactive: 1.05 | inactive: 0.924 | inactive: 0.628 | inactive: 0.62 | inactive: 0.793 | inactive: 0.899 |
| KRAIGHFSATS [FAM120A_Y327_Y327H_YF] | inactive: 0.812 | inactive: 0.731 | inactive: 0.668 | inactive: 0.622 | inactive: 0.687 | inactive: 0.762 |
| REVPVYTYSEP [FAM120B_Y368_D370Y] | inactive: 0.789 | inactive: 0.777 | inactive: 0.979 | inactive: 0.728 | inactive: 0.632 | inactive: 0.888 |
| KEDPEYKKKFR [FAM161A_Y278_E273K] | inactive: 0.638 | inactive: 1.08 | inactive: 0.782 | inactive: 0.644 | inactive: 0.878 | inactive: 0.815 |
| VRFVDYVLFRS [FAM189B_Y361_S358F] | inactive: 3.03 | inactive: 2.95 | active: 3.3 | inactive: 2.56 | inactive: 2.9 | inactive: 3.06 |
| AAVDEYLEFRR [FAM221A_Y17_YF] | inactive: 0.882 | inactive: 0.752 | inactive: 1.21 | inactive: 0.725 | inactive: 0.937 | inactive: 0.689 |
| DEFLEHRRIVG [FAM221A_Y20_Y20H_YF] | inactive: 0.828 | inactive: 0.563 | inactive: 0.728 | inactive: 0.675 | inactive: 0.656 | inactive: 0.752 |
